# Assay results taken from the supplement of paper PMC8728848.
# The other results are listed elsewhere or left out.
# Tests used:
# Test in all cases: glycan array binding signal (z-score within array); higher = stronger binding
# Conditions in all cases: glycan notation: IUPAC condensed, linker removed
# [1] = molecular target: Gal(a1-3)Gal(b1-4)GlcNAc(b1-2)Man
# Method in brief: (§1)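 Columns mapping to the same glycan were averaged after glycan names were converted to IUPAC-condensed notation. The data come from 3228 arrays in the Consortium for Functional Glycomics database, limited to those with an available protein sequence. Binding is reported as a within-array Z-score averaged across arrays of one protein sequence and across linkers.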
# [2] = molecular target: Gal(a1-3)Gal(b1-4)GlcNAc(b1-2)Man(a1-3)[Gal(a1-3)Gal(b1-4)GlcNAc(b1-2)Man(a1-6)]Man(b1-4)GlcNAc(b1-4)GlcNAc
# Method in brief: as §1
# [3] = molecular target: Gal(a1-3)Gal(b1-4)GlcNAc(b1-3)GalNAc
# Method in brief: as §1
# [4] = molecular target: Gal(a1-3)Gal(b1-4)GlcNAc(b1-6)GalNAc
# Method in brief: as §1
# [5] = molecular target: Gal(a1-3)Gal(b1-4)[Fuc(a1-3)]GlcNAc
# Method in brief: as §1
# [6] = molecular target: Gal(a1-3)Gal(b1-4)[Fuc(a1-3)]GlcNAc(b1-2)Man(a1-3)[Gal(a1-3)Gal(b1-4)[Fuc(a1-3)]GlcNAc(b1-2)Man(a1-6)]Man(b1-4)GlcNAc(b1-4)GlcNAc
# Method in brief: as §1
# [7] = molecular target: Gal(a1-3)GalNAc
# Method in brief: as §1
# [8] = molecular target: Gal(a1-3)[Gal(a1-4)]Gal(b1-4)GlcNAc
# Method in brief: as §1
# [9] = molecular target: Gal(a1-4)Gal(b1-3)GlcNAc(b1-2)Man(a1-3)[Gal(a1-4)Gal(b1-3)GlcNAc(b1-2)Man(a1-6)]Man(b1-4)GlcNAc(b1-4)GlcNAc
# Method in brief: as §1
# [10] = molecular target: Gal(a1-4)Gal(b1-4)Glc
# Method in brief: as §1
# [11] = molecular target: Gal(a1-4)Gal(b1-4)GlcNAc
# Method in brief: as §1
# [12] = molecular target: Gal(a1-4)Gal(b1-4)GlcNAc(b1-2)Man(a1-3)[Gal(a1-4)Gal(b1-4)GlcNAc(b1-2)Man(a1-6)]Man(b1-4)GlcNAc(b1-4)GlcNAc
# Method in brief: as §1
# [13] = molecular target: Gal(a1-4)Gal(b1-4)GlcNAc(b1-3)Gal(b1-4)Glc
# Method in brief: as §1
# [14] = molecular target: Gal(a1-4)GlcNAc
# Method in brief: as §1
# [15] = molecular target: Gal(a1-6)Glc
# Method in brief: as §1
# [16] = molecular target: Gal(b1-2)Gal
# Method in brief: as §1
# [17] = molecular target: Gal(b1-3)Gal
# Method in brief: as §1
# [18] = molecular target: Gal(b1-3)Gal(b1-4)GlcNAc
# Method in brief: as §1
# [19] = molecular target: Gal(b1-3)GalNAc
# Method in brief: as §1
# [20] = molecular target: Gal(b1-3)GalNAc(a1-3)[Fuc(a1-2)]Gal(b1-4)Glc
# Method in brief: as §1
# [21] = molecular target: Gal(b1-3)GalNAc(a1-3)[Fuc(a1-2)]Gal(b1-4)GlcNAc
# Method in brief: as §1
# [22] = molecular target: Gal(b1-3)GalNAc(b1-3)Gal
# Method in brief: as §1
# [23] = molecular target: Gal(b1-3)GalNAc(b1-3)Gal(a1-4)Gal(b1-4)Glc
# Method in brief: as §1
# [24] = molecular target: Gal(b1-3)GalNAc(b1-4)Gal(b1-4)Glc
# Method in brief: as §1
# [25] = molecular target: Gal(b1-3)GalNAc(b1-4)[Neu5Ac(a2-3)]Gal(b1-4)Glc
# Method in brief: as §1
# [26] = molecular target: Gal(b1-3)GlcNAc
# Method in brief: as §1
# [27] = molecular target: Gal(b1-3)GlcNAc(a1-3)Gal(b1-4)GlcNAc
# Method in brief: as §1
# [28] = molecular target: Gal(b1-3)GlcNAc(a1-6)Gal(b1-4)GlcNAc
# Method in brief: as §1
# [29] = molecular target: Gal(b1-3)GlcNAc(b1-2)Man
# Method in brief: as §1
# [30] = molecular target: Gal(b1-3)GlcNAc(b1-2)Man(a1-3)[Gal(b1-3)GlcNAc(b1-2)Man(a1-6)]Man(b1-4)GlcNAc(b1-4)GlcNAc
# Method in brief: as §1
# [31] = molecular target: Gal(b1-3)GlcNAc(b1-2)Man(a1-3)[Gal(b1-3)GlcNAc(b1-2)Man(a1-6)]Man(b1-4)GlcNAc(b1-4)[Fuc(a1-6)]GlcNAc
# Method in brief: as §1
# [32] = molecular target: Gal(b1-3)GlcNAc(b1-2)Man(a1-3)[GlcNAc(b1-4)][Gal(b1-3)GlcNAc(b1-2)Man(a1-6)]Man(b1-4)GlcNAc(b1-4)GlcNAc
# Method in brief: as §1
# [33] = molecular target: Gal(b1-3)GlcNAc(b1-2)[Gal(b1-3)GlcNAc(b1-6)]Man(a1-6)[Gal(b1-3)GlcNAc(b1-2)Man(a1-3)]Man(b1-4)GlcNAc(b1-4)GlcNAc
# Method in brief: as §1
# [34] = molecular target: Gal(b1-3)GlcNAc(b1-3)Gal(b1-3)GlcNAc
# Method in brief: as §1
# [35] = molecular target: Gal(b1-3)GlcNAc(b1-3)Gal(b1-4)Glc
# Method in brief: as §1
# [36] = molecular target: Gal(b1-3)GlcNAc(b1-3)Gal(b1-4)GlcNAc
# Method in brief: as §1
# [37] = molecular target: Gal(b1-3)GlcNAc(b1-3)Gal(b1-4)GlcNAc(b1-2)Man(a1-3)[Gal(b1-3)GlcNAc(b1-3)Gal(b1-4)GlcNAc(b1-2)Man(a1-6)]Man(b1-4)GlcNAc(b1-4)GlcNAc
# Method in brief: as §1
binder,measurement,setting,value
PX9937J-pdi-523-26-523 (Parabacteroides distasonis) (protein) EPVSSISDANYWKSPDLFKAFNIGLHGLLRSQSSYNIFVLGEPRSDIYGDQPFGGEATQGVERFSYNTINAEFTGISNFANFYTTLNQINLMIRRTNETDLLGEAEKNYYLGQAYGLRAYIYFHLLRSWGDVIITTEPTLGSELDISHLDKAASPASEVMDLIKKDIDASEKAFGGDYSYKQGKCYWSKPATLMLKGEVYLWSGRQMGGGTGDYTVAKTALQDLQQNGNLKLQEKFTDVFSFNNKENSEMIFALHSGKEDDFMMWRDYNWRNNMVPQREYMAGYCDETGTPFLEIPGYNLQGLMRYQVKKDHYLKSFREGDTRLKGTLKAVYKKHEDGTLEYIAPIQYKFQGTTLEGSNERSWYDDYPIYRYADALLLLAEAKALLGEDPSTEINAVRERAYGSEYFNAHKNEVAYPNDKGSFYNDNPFEAGDENVMEAILKERLREFFFEGKRWYDLRRFGKDYVLKYTTAQESRLLWPINEGALTNNPALKQTPGY,glycan array binding signal (z-score),[1],-0.485
same,glycan array binding signal (z-score),[2],0.332
same,glycan array binding signal (z-score),[3],0.255
same,glycan array binding signal (z-score),[4],-0.49
same,glycan array binding signal (z-score),[5],-0.333
same,glycan array binding signal (z-score),[6],-0.105
same,glycan array binding signal (z-score),[7],-0.647
same,glycan array binding signal (z-score),[8],1.62
same,glycan array binding signal (z-score),[9],1.16
same,glycan array binding signal (z-score),[10],0.596
same,glycan array binding signal (z-score),[11],0.111
same,glycan array binding signal (z-score),[12],2.9
same,glycan array binding signal (z-score),[13],-0.512
same,glycan array binding signal (z-score),[14],-0.673
same,glycan array binding signal (z-score),[15],-0.309
same,glycan array binding signal (z-score),[16],0.192
same,glycan array binding signal (z-score),[17],0.291
same,glycan array binding signal (z-score),[18],-0.526
same,glycan array binding signal (z-score),[19],-0.346
same,glycan array binding signal (z-score),[20],0.248
same,glycan array binding signal (z-score),[21],0.105
same,glycan array binding signal (z-score),[22],-0.459
same,glycan array binding signal (z-score),[23],-0.921
same,glycan array binding signal (z-score),[24],-0.204
same,glycan array binding signal (z-score),[25],0.096
same,glycan array binding signal (z-score),[26],-0.187
same,glycan array binding signal (z-score),[27],-0.385
same,glycan array binding signal (z-score),[28],0.058
same,glycan array binding signal (z-score),[29],-0.347
same,glycan array binding signal (z-score),[30],-0.12
same,glycan array binding signal (z-score),[31],-0.227
same,glycan array binding signal (z-score),[32],0.082
same,glycan array binding signal (z-score),[33],-0.11
same,glycan array binding signal (z-score),[34],-0.607
same,glycan array binding signal (z-score),[35],0.235
same,glycan array binding signal (z-score),[36],-0.577
same,glycan array binding signal (z-score),[37],3.05
